{"source": "patent US20260201033A1", "about": "(LTZ THERAPEUTICS, published 2026)", "binders": {"B1": {"name": "HER2/3A7 (2+2 A) Fc-silenced (bispecific antibody, human IgG1, kappa)", "heavy": "[about 450 residues with a human IgG1 Fc not given here]", "light": "[about 200 residues not given here]GGGGSGGGGSGGGGSAVVMTQTPASVEAAVGGTVTINCQASQRINNYLSWFQQKPGQPPKLLIYGAATLASGVPSRFKGSGSGTEYTLTISDLEPADAATYYCQCTYGIPSSNYGFGGGTEVVVKGGGGSGGGGSGGGGSGGGGSQSLEESGGDLVKPGASLTLTCTASGFSFSGMYWICWVRQAPGKGLEWIACIYTGSSTTGYASWAKGRFTISKTSSTTVTLQMTSLTAADTATHFCASPYGDSSHYRGLNLWGPGTLVTVSS", "notes": "also called HER2/3A7 (2+2) Fc-LALAPG"}, "B2": {"name": "HER2/5C7 (2+2 A) Fc-silenced (bispecific antibody, human IgG1, kappa)", "heavy": "[about 450 residues with a human IgG1 Fc not given here]", "light": "[about 200 residues not given here]GGGGSGGGGSGGGGSAIVMTQTPSSKSVPVGDTVTINCQASESVDRNNRLAWFQQKPGQPPKLLIYTTSTLASGVPSRFKGSGSGTHFTLTISDVVPDDAATYYCAGYRGAHTDGDAFGGGTEVVVKGGGGSGGGGSGGGGSGGGGSQSLEESGGDLVKPGASLTLTCTASGFSFSRSSYMCWVRQAPGKGLEWIGCLSVGDGHTYYASWAKGRFTISKTSSTSVTLQMTRLTAADTATYFCARAPSYSGDGGHGYDLWGPGTLVTVSS", "notes": "also called HER2/5C7 (2+2) Fc-LALAPG"}, "B3": {"name": "HER2/5C7 (2+2 A) Fc-optimized (bispecific antibody, human IgG1, kappa)", "heavy": "[about 250 residues not given here][about 200 residues not given here]", "light": "[about 200 residues not given here]GGGGSGGGGSGGGGSAIVMTQTPSSKSVPVGDTVTINCQASESVDRNNRLAWFQQKPGQPPKLLIYTTSTLASGVPSRFKGSGSGTHFTLTISDVVPDDAATYYCAGYRGAHTDGDAFGCGTEVVVKGGGGSGGGGSGGGGSGGGGSQSLEESGGDLVKPGASLTLTCTASGFSFSRSSYMCWVRQAPGKCLEWIGCLSVGDGHTYYASWAKGRFTISKTSSTSVTLQMTRLTAADTATYFCARAPSYSGDGGHGYDLWGPGTLVTVSS", "notes": "also called HER2/CLEC5A (2+2 A) Fc-optimized antibody"}}, "key": {"HER2 on SK-BR-3 cells [1]": {"target": "HER2 on SK-BR-3 cells (UniProt P04626)", "assay": "cell-based or functional assay"}, "[2]": {"target": "T1, Human C-type lectin domain family 5 member A (CLEC5A), endogenous on human monocytes and M0 macrophages (human, UniProt Q9NY25 1-188)", "T1 construct": "Endogenous CLEC5A on primary human monocytes and monocyte-derived M0 macrophages; also called MDL-1; M0 macrophages (CLEC5A+) cells", "T1 sequence": "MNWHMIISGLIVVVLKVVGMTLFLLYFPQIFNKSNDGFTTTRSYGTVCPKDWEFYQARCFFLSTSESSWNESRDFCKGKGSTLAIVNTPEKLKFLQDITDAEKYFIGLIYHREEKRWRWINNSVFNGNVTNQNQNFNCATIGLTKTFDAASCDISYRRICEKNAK", "assay": "flow cytometry on human M0 macrophages, anti-human IgG PE"}, "HER2 on SK-BR-3 cells [3]": {"target": "HER2 on SK-BR-3 cells (UniProt P04626)", "assay": "cell-based or functional assay", "remark": "listed apart in the source"}, "HER2 on SK-BR-3 cells [4]": {"target": "HER2 on SK-BR-3 cells (UniProt P04626)", "assay": "cell-based or functional assay", "remark": "listed apart in the source"}, "[5]": {"target": "T2, Human CLEC5A His Tag protein (ACROBiosystems, Cat #: CLA-H5243) (human, UniProt Q9NY25 28-188, limits assumed)", "T2 construct": "Bought protein with a His tag; also called recombinant human CLEC5A protein", "T2 sequence": "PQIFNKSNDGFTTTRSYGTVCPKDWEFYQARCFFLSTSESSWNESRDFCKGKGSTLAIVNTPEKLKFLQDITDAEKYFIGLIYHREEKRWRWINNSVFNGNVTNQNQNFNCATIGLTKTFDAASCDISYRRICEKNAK", "assay": "ELISA, plate coated with human CLEC5A"}, "[6]": {"target": "T1, Human C-type lectin domain family 5 …", "assay": "flow cytometry on human M0 macrophages, anti-human IgG PE", "remark": "listed apart in the source"}}, "note": "Like-named read-outs stand apart in the source and are kept apart here."}
{"binder": "B1", "values": [{"measurement": "IC50 (nM), SK-BR-3 cell killing by M0 macrophages (E:T 5:1)", "setting": "HER2 on SK-BR-3 cells [1]", "result": 0.0408, "unit": "nM"}, {"measurement": "EC50", "setting": "[2]", "result": 1.18, "unit": "nM"}]}
{"binder": "B2", "values": [{"measurement": "IC50 (nM), SK-BR-3 cell killing by M0 macrophages (E:T 5:1)", "setting": "HER2 on SK-BR-3 cells [1]", "result": 0.0614, "unit": "nM"}, {"measurement": "IC50 (nM), SK-BR-3 cell killing by M0 macrophages in the presence of hIgG1", "setting": "HER2 on SK-BR-3 cells [3]", "result": 0.00761, "unit": "nM"}, {"measurement": "IC50 (nM), SK-BR-3 cell killing by M0 macrophages in the presence of media", "setting": "HER2 on SK-BR-3 cells [3]", "result": 0.0142, "unit": "nM"}, {"measurement": "IC50 (nM), SK-BR-3 cell killing by M0 macrophages in the presence of plasma", "setting": "HER2 on SK-BR-3 cells [3]", "result": 0.0677, "unit": "nM"}, {"measurement": "EC50", "setting": "[2]", "result": 3.12, "unit": "nM"}]}
{"binder": "B3", "values": [{"measurement": "IC50 (nM), SK-BR-3 cell killing by M0 macrophages (E:T 5:1)", "setting": "HER2 on SK-BR-3 cells [1]", "result": 0.006, "unit": "nM"}, {"measurement": "IC50 (nM), SK-BR-3 cell killing by M1 macrophages", "setting": "HER2 on SK-BR-3 cells [4]", "result": 0.0323, "unit": "nM"}, {"measurement": "IC50 (nM), SK-BR-3 cell killing by M2 macrophages", "setting": "HER2 on SK-BR-3 cells [4]", "result": 0.00655, "unit": "nM"}, {"measurement": "IC50 (nM), SK-BR-3 cell killing by M0 macrophages in the presence of hIgG1", "setting": "HER2 on SK-BR-3 cells [3]", "result": 0.00486, "unit": "nM"}, {"measurement": "IC50 (nM), SK-BR-3 cell killing by M0 macrophages in the presence of media", "setting": "HER2 on SK-BR-3 cells [3]", "result": 0.00683, "unit": "nM"}, {"measurement": "IC50 (nM), SK-BR-3 cell killing by M0 macrophages in the presence of plasma", "setting": "HER2 on SK-BR-3 cells [3]", "result": 0.0238, "unit": "nM"}, {"measurement": "EC50", "setting": "[5]", "result": 0.089, "unit": "µg/mL"}, {"measurement": "EC50", "setting": "[6]", "result": 10.8, "unit": "nM"}]}
